Numbering of substitutions follows the chain as printed; changes in the protein carry UniProt numbers. Some of the results follow.

B1: GUAAAGG (DNA:RNA)
RNA: GGGAGACCGGAAUUCAGAUUGUCCGUAAAGGUUAAAUCCCGUCGUAGCCACCA
DNA 1: CAATCTGAATTCCGGTCTCCC
DNA 2: TGGTGGCTACGACGGGATT
B2: CGCGGCC (DNA:RNA)
RNA: GGGAGACCGGAAUUCAGAUUGUCCCGCGGCCUUAAAUCCCGUCGUAGCCACCA
DNA 1: CAATCTGAATTCCGGTCTCCC
DNA 2: TGGTGGCTACGACGGGATT
B3: GCACCUU (DNA:RNA)
RNA: B1 RNA with U26C, A28C, A29C, G30U, G31U
DNA 1: CAATCTGAATTCCGGTCTCCC
DNA 2: TGGTGGCTACGACGGGATT
B4: AGGACGU (DNA:RNA)
RNA: B1 RNA with G25A, U26G, A27G, A29C, G31U
DNA 1: CAATCTGAATTCCGGTCTCCC
DNA 2: TGGTGGCTACGACGGGATT
B5: GGGGCCC (DNA:RNA)
RNA: B2 RNA with C25G, C27G, G29C
DNA 1: CAATCTGAATTCCGGTCTCCC
DNA 2: TGGTGGCTACGACGGGATT
B6: GUCCUUG (DNA:RNA)
RNA: B1 RNA with A27C, A28C, A29U, G30U
DNA 1: CAATCTGAATTCCGGTCTCCC
DNA 2: TGGTGGCTACGACGGGATT
B7: GCGUUGA (DNA:RNA)
RNA: B1 RNA with U26C, A27G, A28U, A29U, G31A
DNA 1: CAATCTGAATTCCGGTCTCCC
DNA 2: TGGTGGCTACGACGGGATT
B8: CGGUCGU (DNA:RNA)
RNA: B2 RNA with C27G, G28U, G29C, C30G, C31U
DNA 1: CAATCTGAATTCCGGTCTCCC
DNA 2: TGGTGGCTACGACGGGATT
B9: UAAAUUU (DNA:RNA)
RNA: B1 RNA with G25U, U26A, A29U, G30U, G31U
DNA 1: CAATCTGAATTCCGGTCTCCC
DNA 2: TGGTGGCTACGACGGGATT
B10: CGGUUAG (DNA:RNA)
RNA: B2 RNA with C27G, G28U, G29U, C30A, C31G
DNA 1: CAATCTGAATTCCGGTCTCCC
DNA 2: TGGTGGCTACGACGGGATT
B11: AAGCGUC (DNA:RNA)
RNA: B2 RNA with C25A, G26A, C27G, G28C, C30U
DNA 1: CAATCTGAATTCCGGTCTCCC
DNA 2: TGGTGGCTACGACGGGATT
B12: CCGAGAC (DNA:RNA)
RNA: B2 RNA with G26C, C27G, G28A, C30A
DNA 1: CAATCTGAATTCCGGTCTCCC
DNA 2: TGGTGGCTACGACGGGATT
B13: GAAACCG (DNA:RNA)
RNA: B1 RNA with U26A, A29C, G30C
DNA 1: CAATCTGAATTCCGGTCTCCC
DNA 2: TGGTGGCTACGACGGGATT
B14: UAGACAC (DNA:RNA)
RNA: B2 RNA with C25U, G26A, C27G, G28A, G29C, C30A
DNA 1: CAATCTGAATTCCGGTCTCCC
DNA 2: TGGTGGCTACGACGGGATT
B15: UAGCGCC (DNA:RNA)
RNA: B2 RNA with C25U, G26A, C27G, G28C
DNA 1: CAATCTGAATTCCGGTCTCCC
DNA 2: TGGTGGCTACGACGGGATT
B16: ACAGGUU (DNA:RNA)
RNA: B2 RNA with C25A, G26C, C27A, C30U, C31U
DNA 1: CAATCTGAATTCCGGTCTCCC
DNA 2: TGGTGGCTACGACGGGATT
B17: UUGGUGG (DNA:RNA)
RNA: B1 RNA with G25U, A27G, A28G, A29U
DNA 1: CAATCTGAATTCCGGTCTCCC
DNA 2: TGGTGGCTACGACGGGATT
B18: GAGGGCU (DNA:RNA)
RNA: B2 RNA with C25G, G26A, C27G, C31U
DNA 1: CAATCTGAATTCCGGTCTCCC
DNA 2: TGGTGGCTACGACGGGATT
B19: CAUCGUU (DNA:RNA)
RNA: B2 RNA with G26A, C27U, G28C, C30U, C31U
DNA 1: CAATCTGAATTCCGGTCTCCC
DNA 2: TGGTGGCTACGACGGGATT
B20: GUCCUAA (DNA:RNA)
RNA: B1 RNA with A27C, A28C, A29U, G30A, G31A
DNA 1: CAATCTGAATTCCGGTCTCCC
DNA 2: TGGTGGCTACGACGGGATT

For the assay, the target named is T1, RBFOX1 RRM (Homo sapiens, UniProt Q9NWB1 109-208).
T1 sequence: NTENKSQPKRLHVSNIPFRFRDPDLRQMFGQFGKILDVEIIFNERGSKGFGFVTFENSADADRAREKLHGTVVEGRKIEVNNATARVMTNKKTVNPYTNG
Briefly: EMSA; HiTS-Eq, 1 nM pool, 10 min; buffer printed only for the single-RNA assays: 10 mM Tris pH 7.5, 150 mM NaCl, 3.4 mM EDTA, 0.001% NP-40, 30 C. The settings on record: tags: His6 N-terminal (pET28a); label: 5' 32P. The essentials:
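A pool of RNA with 7 randomized nucleotides, 5′-radiolabelled and with DNA-annealed flanks, was equilibrated at 1 nM for 10 min in 50 µL with purified RbFox RRM, wild type or mutant, across increasing protein concentrations. Free RNA was separated by 8% native PAGE, excised, reverse-transcribed, barcoded by PCR and sequenced. Relative association constants were obtained from read-count changes of each RNA species versus the control reaction and normalised to the cognate motif.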
For B1, the binding signal is 0.00572 KA relative to UGCAUGU.
As for B2, the figure is 0.016 KA relative to UGCAUGU; as for B3, 0.00757 KA relative to UGCAUGU; as for B4, 0.0265 KA relative to UGCAUGU.
As for B5, the binding signal was 0.0409 KA relative to UGCAUGU.
As for B6, the figure is 0.0114 KA relative to UGCAUGU.
As for B7, the figure is 0.0205 KA relative to UGCAUGU; as for B8, 0.0131 KA relative to UGCAUGU.
As for B9, the figure is 0.00806 KA relative to UGCAUGU.
In the case of B10, the binding signal was 0.0127 KA relative to UGCAUGU.
The same measure for B11: 0.00965 KA relative to UGCAUGU.
The same measure for B12: 0.011 KA relative to UGCAUGU; for B13: 0.00268 KA relative to UGCAUGU.
In the case of B14, the binding signal is 0.00295 KA relative to UGCAUGU.
The same measure for B15: 0.00963 KA relative to UGCAUGU; for B16: 0.00665 KA relative to UGCAUGU; for B17: 0.0195 KA relative to UGCAUGU.
The same measure for B18: 0.0208 KA relative to UGCAUGU; for B19: 0.00523 KA relative to UGCAUGU; for B20: 0.00546 KA relative to UGCAUGU.

For the origin of these results see publication PMC9911399, “Two distinct binding modes provide the RNA-binding protein RbFox with extraordinary sequence specificity”.
